Experimental data reported in PubChem BioAssay AID485344 (National Center for Advancing Translational Sciences (NCATS), 2010).
About 6,900 (2%) of roughly 340,000 compounds were called active. Rule as the data show it: active = inhibition above about 30%; inactive = below that, where a call was filed. The list shows a part of the results, in another mix than the full data. The source gives no active or inactive call for entries shown without one.

Target: D(2) dopamine receptor (Homo sapiens) (UniProt P14416)
Chain of UniProt P14416 (P14416 whole entry, looked up): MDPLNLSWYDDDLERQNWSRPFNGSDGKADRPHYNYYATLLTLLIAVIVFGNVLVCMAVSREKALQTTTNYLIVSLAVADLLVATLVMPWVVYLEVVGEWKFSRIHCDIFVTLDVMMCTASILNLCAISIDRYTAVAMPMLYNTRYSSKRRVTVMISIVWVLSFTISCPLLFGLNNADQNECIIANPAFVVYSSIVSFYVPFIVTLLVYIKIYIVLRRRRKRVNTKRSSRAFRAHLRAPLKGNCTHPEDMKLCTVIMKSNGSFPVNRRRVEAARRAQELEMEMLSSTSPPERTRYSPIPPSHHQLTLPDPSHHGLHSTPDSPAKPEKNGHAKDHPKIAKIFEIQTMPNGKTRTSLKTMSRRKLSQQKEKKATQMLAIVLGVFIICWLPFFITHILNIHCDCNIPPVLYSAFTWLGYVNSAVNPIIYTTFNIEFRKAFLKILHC
Assay: HTS Assay for Allosteric Antagonists of the Human D2 Dopamine Receptor: Primary Screen for Antagonists; also: 0% is about no effect
Settings: HEK293 TREx D2 cells, calcium flux, dopamine EC80; at 10 µM; stronger effect = higher value
How it was run: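 Read-out: kinetic calcium fluorescence (1 cycle/s) in inducible HEK293 T-REx D2 cells after an EC80 dopamine addition that followed 180 s compound preincubation. Loss of the dopamine response indicates antagonism.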

SMILES | inhibition
Cc1ccc(-c2nc(CSc3nnc(C)n4c3cc3occc34)c(C)o2)cc1 | -1.08%
Cc1ccc(NC(=O)CN(Cc2ccccc2)S(=O)(=O)c2ccc3nc(C)sc3c2)c(C)c1 | 22.6%
CCCCSc1nnc2c(n1)OC(c1ccc(Br)s1)Nc1ccccc1-2 (stereo not given) | 7.38%
CCn1c(CN2CCN(C)CC2)nc2cc(NC(=O)c3ccc([N+](=O)[O-])cc3)ccc21 | 4.34%
NC(=O)C1CCN(c2csc3ccc(F)cc3c2=O)CC1 | 8.53%
COc1ccc(N2CCN(C(CNC(=O)c3ccc(OC)c(OC)c3)c3cccnc3)CC2)cc1 (stereo not given) | 4.13%
CCOC(=O)N[C@H](Cc1c[nH]c2ccccc12)C(=O)Nc1cccc(Cl)c1 | 11.7%
CCc1ccc(C2CC(=O)Nc3c2c(=O)n(C)c2ncnn32)cc1 (stereo not given) | 0.153%
CCOCCCN(Cc1ccco1)C(=O)c1cc2c(s1)-c1c(C)cccc1OC2 | 22.3%
COc1ccc(C(=O)c2cn(CC(=O)Nc3cc(C)ccc3C)c3nc(C)ccc3c2=O)cc1 | -1.41%
CC(C)Oc1ccc(CNC(=O)C2=Cc3ccccc3OC2)cc1 | 18.3%
CN1CCN(C(=O)c2ccc3c(c2)N(Cc2ccc(F)cc2)C(=O)c2ccccc2S3(=O)=O)CC1 | -1.45%
COc1ccc(NC(=O)CSc2nnc(-c3ccncc3)n2-c2ccccc2)cc1 | 8.2%
CCC(C)NC(=O)c1c2c(nc3ccccc13)C(=O)N(C1CCCCC1)C2 (stereo not given) | 12.3%
CCOC(=O)c1cc(S(=O)(=O)Nc2ccccc2)[nH]n1 | -18%
O=C(CSc1n[nH]c(-c2ccc(F)cc2)n1)N1CCN(c2ccc(F)cc2)CC1 | -9.12%
CCc1ccc(CNC(=O)C2CCN(c3nn4cc(-c5ccc(OC)cc5)nc4s3)CC2)cc1 | 2.2%
COc1ccc(C2=NC(c3ccccc3)=Nc3ccc(C)cc3N2)cc1 | 9.93%
COc1ccc(CC(=O)N2CC(=O)Nc3ccc(F)cc3C2c2ccccc2)cc1 (stereo not given) | 1.52%
COc1ccccc1CNC(=O)c1ccc(N2CCCC2)c(NC(=O)NCc2ccc(C)cc2)c1 | 19.2%
Cc1ccccc1CNC(=O)Cn1c(=O)c2cccn2c2cccnc21 | 6.82%
CC(=O)c1ccc(NC(=O)C2CCN(S(=O)(=O)c3ccc4[nH]c5c(c4c3)CCCCC5)CC2)cc1 | 2.71%
CCCOc1ccc(C2c3c(oc4ccccc4c3=O)C(=O)N2c2nnc(C(C)C)s2)cc1 (stereo not given) | 1.89%
NC(=O)c1cc(S(=O)(=O)NCc2cccc(Br)c2)cs1 | 2.25%

SMILES | inhibition
Cc1nc2ccn(Cc3ccco3)c(=O)c2cc1C(=O)NCc1ccc(Cl)cc1 | 10.9%
COC(=O)c1ccc(NC(=O)Cn2c(=O)oc3ccccc32)cc1 | 3.03%
Cc1ccc(CNC(=O)c2ccc3c(c2)CCN3S(=O)(=O)c2ccc(Br)cc2)cc1 | 1.99%
CCn1c(SCC(=O)Nc2cc(C)ccc2F)nnc1-c1ccccc1O | 7.34%
COc1ccc(N2CC(NC(=O)C3CCCCC3)CC2=O)cc1 (stereo not given) | -7.61%
CN(CC(=O)Nc1cccc(F)c1)C(=O)C1CC(=O)N(CCc2ccccc2)C1 (stereo not given) | active: 33.5%
CCN(c1ccc(OC)cc1)S(=O)(=O)c1ccc2[nH]c3c(c2c1)CCCCC3 | -17.3%
COc1ccc(-c2nc3ccccc3o2)cc1NC(=O)Cc1ccc(Cl)cc1 | 24.8%
Cc1cccc(N(C)C(=O)Cn2c(=O)oc3cc(S(=O)(=O)N4CCCCC4)ccc32)c1 | 16%
Cn1ccnc1SCC(=O)Nc1cccc(Br)c1 | -3.95%
COc1cccc(N2C(=O)C(CC(=O)Nc3cccc(F)c3)N(C3CCCC3)C2=O)c1 (stereo not given) | -11.7%
COC(=O)c1ccccc1NC(=O)Cn1c(=O)n(CCC(=O)NCc2ccc3c(c2)OCO3)c(=O)c2ccccc21 | 22.5%
CC1=C(C(=O)OC2CCCC2)C(c2c(F)cccc2Cl)CC(=O)N1 (stereo not given) | 7.28%
Cc1ccc(-c2cn3nc(N4CCCC(C(=O)NCc5ccccc5F)C4)sc3n2)cc1 (stereo not given) | 4.55%
Cc1ccc(-c2csc(-c3c(N)c(C(=O)c4ccc5c(c4)OCO5)n4ccccc34)n2)cc1 | 13.4%
COc1ccc(-n2c(-c3cccc(F)c3)nc3c(cnn3-c3ccc(C)cc3)c2=O)cc1 | -9.52%
Cc1ccc(Cn2nc3n(c2=O)-c2cc(Cl)ccc2OC3)cc1 | 23.3%
Cc1ccc(S(=O)(=O)N/N=C\c2cccnc2)cc1 | active: 35.3%
COc1ccc(CCNC(=O)c2ccc(-n3c(C)cc4c3CCC(C)C4)cc2)cc1OC (stereo not given) | 10.2%
Cc1cc(C)cc(NC(=O)COc2cccc3c(=O)n(C)ccc23)c1 | -7.69%
Cc1cc(C)c(OCC(=O)N(Cc2ccc(N(C)C)cc2)Cc2ccco2)c(C)c1 | -1.32%
O=C(NCc1ccc2c(c1)OCO2)c1ccc2c(c1)N(Cc1c(F)cccc1Cl)C(=O)c1ccccc1S2 | -3.8%
CCOc1ccc(NS(=O)(=O)c2ccc3c(c2)NC(=O)CCS3)cc1 | 16.1%
Cc1ccc(NC(=S)NC2CCN(Cc3ccccc3)CC2)cc1 | active: 83.7%

SMILES | inhibition
O=C(CNC(=O)c1ccc(F)cc1)OCc1cc(=O)n2ccsc2n1 | 0.446%
CCN1CCc2c(sc(NC(=O)c3ccc(S(=O)(=O)N4CCCC(C)C4)cc3)c2C(=O)OC)C1 (stereo not given) | -14.4%
COc1ccc(C(=O)Nc2ccc3oc(-c4cccc5c(Br)cccc45)nc3c2)cc1 | -7.26%
Cc1ccccc1Cn1c(CN2CCC(C(=O)NCc3ccc(Cl)cc3)CC2)cc2ccccc21 | 10.1%
Cc1c(Cl)cccc1NC(=O)C(=O)NCCc1csc(-c2ccc(C(F)(F)F)cc2)n1 | 15%
CCCCN(C)C(=O)c1ccc2c(=O)n3nc(Nc4cc(C)ccc4C)sc3nc2c1 | -0.129%
CCC(=O)N1CCCc2cc(S(=O)(=O)N3CCN(c4ncccn4)CC3)ccc21 | active: 31.3%
Cn1c(=O)[nH]c(=O)c2c1nc(N1CCOCC1)n2Cc1ccccc1 | 5.09%
CCc1cccc(NC(=O)CCc2nc3cccnc3n2Cc2ccc(OC)cc2)c1 | -2.37%
CCOC(=O)Cc1ccc(NC(=O)Nc2c[nH]c(=O)[nH]c2=O)cc1 | 24.1%
Cc1ccccc1OCC(=O)Nc1ccc(-c2nc3ccccc3o2)cc1 | -4.81%
CC(C)CCNC(=O)CN1C(=O)CSc2ccc(S(=O)(=O)N3CCC(C)CC3)cc21 | -4.05%
CN(C)c1ccc(/C=C/c2nc(-c3ccccc3O)n(-c3ccccc3)n2)cc1 | -10.9%
COc1ccc(NC(=O)[C@H]2O[C@@H]3OC(C)(C)O[C@@H]3[C@H]3OC(C)(C)O[C@H]32)c(OC)c1 | 3.07%
Cc1ccc2c(c1)c1c(c(=O)n(-c3cccc(Cl)c3)c(=O)n1CC(=O)NCC1CCCO1)n2C (stereo not given) | 2.37%
CCOC(=O)C1CCCN(c2nc3c(S(=O)(=O)c4ccc(CC)cc4)nnn3c3ccsc23)C1 (stereo not given) | -2.09%
COc1ccc(NC(=O)C2CC(=O)N(c3cccc(C)c3C)C2)cc1 (stereo not given) | active: 31.1%
Cc1ccccc1Oc1nc2ccccn2c(=O)c1/C=C(\C#N)c1nc2ccccc2[nH]1 | -0.0085%
CCc1cccc(C)c1NC(=O)c1cc(S(=O)(=O)N(Cc2ccc(C(=O)OC)cc2)Cc2ccc(OC)c(OC)c2)ccc1F | -14.3%
CCC(CC)C(=O)Nc1ccc2nc(SCC(=O)N3CCCC3)sc2c1 | 28.4%
COc1ccc(NC(=O)CN2C(=O)CC(c3ccc(C)c(C)c3)=Nc3ccccc32)cc1OC | 6.15%
COc1ccc(Cc2nc3ccc(C(=O)NCc4ccccc4C)cc3o2)cc1 | 10.2%
CCN(CC)CCNC(=O)Cn1ncc2c3ccccc3n(Cc3ccc(Cl)cc3)c2c1=O | -3.21%
Cc1ccc(-c2csc(-c3nc(-c4ccc(Br)s4)cs3)n2)cc1 | -27.8%

SMILES | inhibition
COc1ccc(NC(=O)Cn2nnc(C(=O)NCc3cccs3)c2N)cc1 | 14.4%
Cc1ccc(NC(=O)CSc2nc(=O)n(Cc3cccnc3)c3c2CCC3)cc1F | 21.7%
Cc1c(Cl)cccc1NC(=O)CN1CCN(CCO)CC1 | active: 31.3%
CC(C)(C)C1CCc2c(sc(NC(=O)c3cc4ccccc4c(=O)o3)c2C(N)=O)C1 (stereo not given) | -10.4%
COc1ccc(C2=NN(C(=O)CSc3nc(=O)n4cccc(C)c4n3)C(c3ccc(C)cc3)C2)cc1 (stereo not given) | active: 34.4%
Cc1ccc(C)c(NC(=O)Cn2c(=O)n(CCC(C)C)c(=O)c3cccnc32)c1 | -11.6%
COc1ccccc1NC(=O)Cn1cc(S(=O)(=O)Cc2ccccc2)c2ccccc21 | -0.157%
CCCCCOc1ccc(/C=C/C(=O)Nc2sc(C)c(C)c2C(=O)OCC)cc1OC | 6.26%
Cc1ccc(C)c(NC(=O)CN(C)S(=O)(=O)c2cccc3nsnc23)c1 | -6.46%
CCN(CC)c1nc2ccccc2nc1C(=O)Nc1ccc(C(C)=O)cc1 | 1.62%
Cc1ccc(-n2nc(C(=O)Nc3ccc(F)cc3F)c3c4ccccc4n(C)c3c2=O)cc1 | 10.8%
Cc1cccc(N(C)c2nc3ccc(C(=O)c4ccccc4)cc3n3c(C)nnc23)c1 | -19.2%
COc1ccc(NC(=O)c2ccc(-n3cccn3)c([N+](=O)[O-])c2)cc1 | active: 44.6%
Cc1c(C)c2ccc(OCC(=O)Nc3ccccn3)cc2oc1=O | active: 35.9%
CC1CCN(c2nn3c(=O)c(C(=O)NCCCOC(C)C)cnc3s2)CC1 | 6.81%
Cc1c(C(=O)OCc2ccccc2)[nH]c2c1C(=O)CC(c1ccc(C(C)(C)C)cc1)C2 (stereo not given) | -10.8%
CCc1cccc(NC(=O)c2cc3c(=O)n(Cc4ccccc4)ccc3nc2C)c1 | 14.6%
CC(C)c1ccc(NC(=O)C2CCN(C(=O)c3ccc(F)cc3)CC2)cc1 | -15%
COc1cc(C(=O)Nc2ccccc2-c2nc(-c3ccccc3)no2)cc(OC)c1OC | -12.8%
Cc1ccc(CN2CCCn3nc(C(=O)NCCc4ccccc4C)cc3C2=O)cc1 | 7.44%
OCCN(Cc1ccccc1)CC1CC2C=CC1C2 (stereo not given) | active: 37.1%
Cc1ccc(-c2nc(C)c(CCNC(=O)c3cccs3)s2)cc1 | 25.8%
CC(=O)c1cccc(NC(=O)C2CCN(S(=O)(=O)c3ccc4c(c3)CCCN4C(C)=O)CC2)c1 | 5.84%
